# Measurements: PubChem BioAssay AID686979 (National Center for Advancing Translational Sciences (NCATS), 2013)
# Where “and” joins values, the source holds several entries; their conditions need not be identical. Equal values may be shown once. About 50,000 (12%) of roughly 420,000 compounds were called active. The shares of active, inactive and inconclusive entries below differ from those in the screen. Calls follow the shape of the dose curve; as a rule, active = well fitted inhibition curve with a large enough effect; inconclusive = small, poorly fitted or top-dose-only effect; inactive = flat fitted curve, though single readings scatter. Potencies of inconclusive entries are left out as doubtful fits.
# Assay: qHTS for Inhibitors of human tyrosyl-DNA phosphodiesterase 1 (TDP1): qHTS in cells in presence of CPT; also: nearly all actives have a fitted effect of over 55% in size
# Details: chicken DT40 Tdp1-/-;hTDP1 cells + 20 nM CPT, ATP luminescence, 48 h; activity change, negative = growth inhibition: at 46.2 µM (top of the series) unless noted
# Summary of the method: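 Chicken DT40 Tdp1-/- cells stably complemented with human TDP1 were seeded at 400 cells/well in medium containing 20 nM camptothecin, exposed to pin-transferred compounds, and grown at 37 °C for at least 48 hr. Viability was read as ATP luminescence.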
# % is scaled to controls: 0 for no effect and ±100 for the full control effect; potency is read from the fitted curve at half-maximal effect; tags tell the direction and shape of the fitted curve.
SMILES,"activity change, negative = growth inhibition",Potency
NC(=S)NNC(=O)COc1ccccc1O,inactive: -5.98%,
O=c1oc(-c2cccc(C(F)(F)F)c2)nn1-c1ccc(C(F)(F)F)cn1,inactive: -2.46%,
O=C(Nc1ccccc1)N1CCN(c2ccc(F)cc2)CC1,,"inconclusive [inhibitor, single point]"
NC(N)=N/N=C/c1ccc(Br)cc1,,active: 2.59 µM
CCN(CC)CCNC(=O)c1c(C)n(-c2ccccc2)c2cc(Br)c(OC)cc12,,"inconclusive [inhibitor, single point]"
CC1CCN(C(=O)COC(=O)c2ccc3c(c2)C(=O)N(Cc2ccco2)C3=O)CC1,inactive: 0.547%,
O=S1(=O)N[C@H](Cc2ccccc2)COc2cc(N3CCC[C@@H]3CO)ccc21,,"inconclusive [inhibitor, single point]"
COc1cc(S(=O)(=O)NCC2COCCO2)ccc1-n1cnnn1 (configuration not stated),,"inconclusive [inhibitor, single point]"
C(=C\c1ccccc1)/CN1CCN(C(c2ccccc2)c2nnnn2C2CCCC2)CC1 (configuration not stated),,active: 18.4 µM
Cc1ccc(NC(=O)CN2C(=O)NC(Cc3ccccc3)C2=O)cc1 (configuration not stated),,"inconclusive [inhibitor, full curve, poor fit]"
Cc1cccc2sc(=S)[nH]c12,,"inconclusive [inhibitor, partial curve, poor fit]"
CC(=O)Nc1cccc(NS(=O)(=O)c2cc3c4c(c2)CCN4C(=O)CC3)c1,inactive: -17.4%,
COc1ccc(NC(=O)CSc2nc(=O)n(CCN3CCOCC3)c3c2CCC3)cc1,inactive: -5.31%,
CC(OC(=O)/C=C/c1ccc2ccccc2n1)C(=O)N(C)c1ccccc1 (configuration not stated),,"inconclusive [inhibitor, single point]"
CCN1CCN(C2=C(NS(=O)(=O)c3ccc(C)cc3)C(=O)c3ccccc3C2=O)CC1,,active: 11.6 µM
CC(C)(C)n1nnnc1C(c1cccnc1)N1CCN(c2ccccn2)CC1 (configuration not stated),,"inconclusive [inhibitor, partial curve]"
CCCNc1nc2c(c(=O)[nH]c(=O)n2C)n1CCOc1ccccc1,,"inconclusive [inhibitor, partial curve]"
O=C(OCC#CCSc1nnc(-c2ccncc2)o1)c1sc2ccccc2c1Cl,,"inconclusive [inhibitor, single point]"
CCn1c(CSc2ncccn2)nnc1SCC(=O)N1CCc2ccccc21,,"inconclusive [inhibitor, single point]"
Cc1nc2ccc(NS(=O)(=O)c3ccc4c(c3)OCCO4)cc2s1,,active: 1.84 µM
CCc1c(C)nc(N)nc1Cl,inactive: -7.64%,
O=c1[nH]c(-c2ccccn2)nc2ccccc12,,active: 29.1 µM
O=C(CC(c1ccccc1)c1ccccc1O)NCCN1CCOCC1 (configuration not stated),inactive: -25%,
CC(=O)c1cn(CC(=O)Nc2ccc(C)cc2C)c2ccccc12,,active: 5.17 µM

SMILES,"activity change, negative = growth inhibition",Potency
Nc1ccccc1SCC(=O)Nc1ccc(N2CCOCC2)cc1,inactive: -8.62%,
COc1ccc(Oc2c(-c3ccc(O)cc3O)n[nH]c2C)cc1,,"inconclusive [inhibitor, single point]"
CCOC(=O)c1ccc(NC(=O)Cn2cc(C(=O)c3ccc(CC)cc3)c(=O)c3ccc(C)nc32)cc1,,active: 11.6 µM
COc1ccc(CNC(=O)OC23CN(C(=O)OC(C)C)N(C(=O)OC(C)C)CC2(O)CN(S(=O)(=O)c2ccc(C)cc2)C3)cc1OC (configuration not stated),,"inconclusive [inhibitor, single point]"
CCN1c2ccccc2-c2nc(SCC(=O)NCc3ccc(C)cc3)ncc2S1(=O)=O,,"inconclusive [inhibitor, single point]"
Cc1c(C(=O)c2ccc3c(c2)OCO3)ccc2c1OCO2,,"inconclusive [inhibitor, single point]"
Cc1ccc(S(=O)(=O)Nc2nc3ccccc3nc2NCc2ccco2)cc1C,,"inconclusive [inhibitor, single point]"
CC(C)Oc1ccccc1-c1cc(C(=O)N/N=C/c2cccnc2)c2ccccc2n1,,"inconclusive [inhibitor, partial curve]"
CCOc1ccc(N=Nc2cc(C(C)C)ccc2O)cc1,inactive: -21.6%,
CCC(=O)c1ccc(OCC(=O)Nc2cccc(S(=O)(=O)N3CCCCCC3)c2)cc1,,active: 7.31 µM
Cc1nc2cc(N)ccc2n1-c1ccccc1,,"inconclusive [inhibitor, single point]"
C#Cc1ccc(NC(=O)C2(C)CCN2C(=O)Cc2ccc(-c3ccccc3)cc2)cc1 (configuration not stated),,"inconclusive [inhibitor, single point]"
O=C(CSc1n[nH]c(-c2ccncc2)n1)Nc1ccccc1C(F)(F)F,,active: 18.4 µM
COc1ccc(NS(=O)(=O)c2cccc(C(=O)NNC(=O)CNC(=O)c3cccc(C)c3)c2)cc1,inactive: 9.5%,
COc1cc(CNCCc2ccc(S(N)(=O)=O)cc2)ccc1OCC(=O)NC1CCCCC1,,"inconclusive [inhibitor, single point]"
CCOC(=O)C1(C)CCN1C(=O)c1cc(C)oc1C (configuration not stated),inactive: -12.7%,
CC(=O)c1c(C)oc2ccc(N(C(C)=O)S(=O)(=O)c3ccc(Cl)c([N+](=O)[O-])c3)cc12,,"inconclusive [inhibitor, single point]"
CCOC(=O)c1cnc2ccccc2c1NCCc1ccc(OC)c(OC)c1,,active: 18.4 µM and active: 16.4 µM
CCOC(=O)C1(C)CCCN(C(=O)c2cc(F)cc(F)c2)C1 (configuration not stated),,"inconclusive [inhibitor, partial curve, poor fit]"
C/C(=N/NC(=O)c1ccccn1)c1ccco1,,"inconclusive [inhibitor, partial curve]"
C=CCn1c(O)c(N=O)c2ccccc21,inactive: 0.968%,
O=C(NC1(c2ccccc2)CC1)C1CCC(=O)N(Cc2ccc(Cl)cc2)C1 (configuration not stated),,"inconclusive [inhibitor, single point]"
CCOc1ccccc1NC(=O)CN(C)S(=O)(=O)c1ccc(OC)c(C)c1,,"inconclusive [inhibitor, single point]"
